Results from the supplement of paper PMC11417369.
± gives the standard deviation of the averaged measurements. This is one part of the list.

Test system: PfAP2-LT AP2 domain (GST-tagged)
Test: gcPBM binding intensity (ln(normalized median fluorescence intensity)); higher = stronger DNA binding
Summary of the method: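 Plasmodium falciparum DNA-binding domains carrying a GST tag were expressed in E. coli and applied for 1 h, at about 25 μg on average, to an Agilent 4 × 180k array. The array held primer-extended double-stranded 36-bp intergenic genomic probes together with negative controls, and binding took place in 1× PBS with 1% milk, 0.2 mg/ml BSA, 0.5% salmon testes DNA and 0.03% Triton X-100. An Alexa488 anti-GST antibody detected bound protein, and the array was scanned at 488 nm. Binding intensity is taken as the highest Masliner-normalised natural-log median intensity across replicate spots of either probe orientation.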

Sequence | gcPBM binding intensity (ln)
TATTTTACGACATACCAAAAAAAAAAAAAAAAAATA [CACACA_negctrl_site1254] | 8.33 ± 0.45
AAAAAAAAAAGACACACACACATAGACCTCCAATAG [CACACA_site7646] | 9.79 ± 0.25
TAAATCCGCAGGCACACACACATATTAATAAAAAAA [CACACA_site3991] | 9.59 ± 0.56
AATGTTAAACTATGATGTACGGTTAAAAATATAATT [XGTACX_site893] | 8.72 ± 0.42
TATATATTATATAAATAAATAAATATATATATTTAT [TGCATGCA_negctrl_site270] | 8.23 ± 0.36
AATGATTTTGATTAACGTACGTACAAATATATATAT [XGTACX_site6604] | 8.78 ± 0.32
AAAAAAAATACAAAAAGTACAAAAAATACAAAAAAA [XGTACX_site8844] | 8.88 ± 0.56
ATGTATATATATATATGTACATATTTTTTATATGTA [XGTACX_site441] | 8.83 ± 0.38
TTTAAAATAAATTAATAGAACAAAAATAAAATGATT [GTGCAC_negctrl_site375] | 8.48 ± 0.39
TTCTTTTTTTAAAGAAGTACTATATTTTAAATTATA [XGTACX_site5059] | 8.2 ± 0.52
AATTTTATTACTTTTACACACCTATATATCATTCAT [CACACA_site7525] | 9.13 ± 0.43
TAGGGATTATACCACACACACATACACATAAATATA [CACACA_site3178] | 9.63 ± 0.33
AAGAATAAGGAAAAATGTACAGAATGCACATATGAA [XGTACX_site4705] | 8.89 ± 0.48
ACCTTAAATAATACATGTACAAAAAAATTTATAATA [XGTACX_site1043] | 8.76 ± 0.52
TTTCAAATGATTAAGTGTACATGTTTGCTTGCTCTT [XGTACX_site4697] | 9.01 ± 0.38
TTTTTTTTTGTTATGTTGCACTTTGCCATATTATTA [GTGCAC_site9844] | 8.93 ± 0.49
AATAATAAAAAAAGTGCACACACATAATATATATAT [CACACA_site9100] | 9.34 ± 0.36
TATAAAAAAATAAAAGGAATATACTTGCAAAGGGTA [CACACA_negctrl_site1438] | 8.86 ± 0.39
AACAATATATTGATATTATTTTAAGTGATTATATAT [XGTACX_negctrl_site205] | 8.57 ± 0.33
ATGTAAGTAATTATCTGTACACATAATATATATATA [XGTACX_site2618] | 8.99 ± 0.42
AATATAAAAAATAATACACACACATGGCGACAAAAT [CACACA_site8765] | 9.69 ± 0.28
AGGATAAAAGTTATGGTGCATTAACCTATTTAAATA | 8.56 ± 0.42

Sequence | gcPBM binding intensity (ln)
TATATAGGTATATATACACACAACGGTTATAAATAT [CACACA_site4759] | 9.13 ± 0.33
TATAAAGACACGAAAACACACATATGTAAATATATA [CACACA_site8056] | 9.21 ± 0.4
TACATATTACTATTCAGTACATATTTTTTTTTCATT [XGTACX_site7468] | 8.81 ± 0.57
TAGTTTTGAAAACAAACACACAAAAAAAAAAAAAAA [CACACA_site1692] | 8.63 ± 0.45
CACATAAATAATTAAACACACATTGTTCTAGACAAT [CACACA_site2378] | 8.88 ± 0.41
TTTGAGTTACTATTCACACAAAATGGATAAATTAAT [CACACA_site5626] | 8.59 ± 0.4
AAACCGTGGGAGCACACACACACACCCACCCATATA [CACACA_site332] | 9.88 ± 0.26
ATAATAACAAAATATTAACACACATAACATATTATA [CACACA_site8906] | 9 ± 0.37
ACAAAACAAAACAAAAGTACACAAAATAAATAAGAT [XGTACX_site6497] | 9.32 ± 0.59
AATCCTTAAAATTAACGTACGAAATGAATTTATTAA [XGTACX_site956] | 8.46 ± 0.33
TGGAGGTCATTACACAGTACCCAGGAAATCTACGGA [XGTACX_site2004] | 8.61 ± 0.62
ATAAATAAATACTAGGCACACACACCGATATATATA [CACACA_site8649] | 9.76 ± 0.22
AAAATAAACCCAGACACACTCATTAAAAAATATCAT [CACACA_site5903] | 9.08 ± 0.47
TATTAATCCTTTTGCTTGGAAACATTCAAAAGGAAG [CACACA_negctrl_site1129] | 8.18 ± 0.41
ATATATATAAAATATGGTACAGAAAAAGTCTTGTTT [XGTACX_site8868] | 8.96 ± 0.41
TTCTGTCAATATGCTTGTACGAAATATTTCGTAATT [XGTACX_site3182] | 8.95 ± 0.33
ATGTATATATTCAATTGTACATGTTATATTTACACA [XGTACX_site1125] | 8.82 ± 0.47
ATTGTATTAAAATGCACACATATCAAGAGGAATTTT [CACACA_site283] | 8.99 ± 0.29
AAAGAATAATTAAATACACACATATTGCAGTAAAAA [CACACA_site7201] | 8.93 ± 0.51
TGTAAAATATAAAAAGTGCATTTCTTTTAATATGAT | 8.49 ± 0.51
ATATTAAAATTTTAATGTACATGCGTATGTAGGAAT [XGTACX_site1673] | 9.23 ± 0.38
TATATTATATTTTTATGTACTTATTTATTTTGTTTC [XGTACX_site6145] | 8.93 ± 0.49
